Whole data set: some 33,000 sequences, median “E-score (-0.5 to 0.5)” near -0.021, cut for the highest 2% near 0.32. The list shows a part of the results.
molecular target: T1, Zap1 (UniProt P47043); assay: PBM E-score (8-mer binding enrichment) (E-score (-0.5 to 0.5)); higher = stronger / more preferred TF binding; most listed sequences are background and not binding sites; details: protein concentration: 200 nM; construct: GST-full length
T1 sequence: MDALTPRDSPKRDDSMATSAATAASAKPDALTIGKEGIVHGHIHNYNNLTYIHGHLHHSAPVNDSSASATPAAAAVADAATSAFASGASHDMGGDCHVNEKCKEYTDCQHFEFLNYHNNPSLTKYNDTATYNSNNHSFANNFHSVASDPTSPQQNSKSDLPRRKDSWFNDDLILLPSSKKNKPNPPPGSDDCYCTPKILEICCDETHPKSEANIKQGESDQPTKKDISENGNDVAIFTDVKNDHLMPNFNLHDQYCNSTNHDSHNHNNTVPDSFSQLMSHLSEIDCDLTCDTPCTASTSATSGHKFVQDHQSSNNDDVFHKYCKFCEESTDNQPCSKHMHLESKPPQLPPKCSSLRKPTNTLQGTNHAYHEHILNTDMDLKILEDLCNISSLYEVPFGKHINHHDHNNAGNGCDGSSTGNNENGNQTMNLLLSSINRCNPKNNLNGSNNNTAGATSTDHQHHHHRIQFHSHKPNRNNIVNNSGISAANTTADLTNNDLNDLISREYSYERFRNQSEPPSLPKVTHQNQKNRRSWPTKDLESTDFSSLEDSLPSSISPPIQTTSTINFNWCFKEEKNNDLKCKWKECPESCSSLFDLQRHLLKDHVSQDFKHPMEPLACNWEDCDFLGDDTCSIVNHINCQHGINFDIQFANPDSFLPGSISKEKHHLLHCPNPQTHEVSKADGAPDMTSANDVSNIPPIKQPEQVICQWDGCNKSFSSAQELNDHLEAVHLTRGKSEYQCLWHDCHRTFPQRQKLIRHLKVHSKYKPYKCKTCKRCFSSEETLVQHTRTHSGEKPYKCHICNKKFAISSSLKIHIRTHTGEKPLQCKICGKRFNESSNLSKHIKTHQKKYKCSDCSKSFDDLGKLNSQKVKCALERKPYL
Summary of the method: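 For each ungapped eight-base word taken together with its reverse complement, the Universal PBM Analysis Suite assigned an E-score. Binding data came from GST-tagged yeast transcription factors, applied at about 100-200 nM, on universal all-10-mer Agilent arrays made double-stranded by primer extension. Fluorescent anti-GST marked bound protein, and scans were normalised with masliner.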

Point of comparison: ACTATATC, “PBM E-score” value 0.173. Against it:
- ATTCATAC — lower, 0.153
- ACAACAGG — lower, 0.0859
- GATTTTAA — lower, -0.00742
- ATGAGTGC — lower, -0.205
- ATGCAAAT — lower, -0.112
- CTAAAAAA — higher, 0.234
- GTCGGATA — lower, -0.0886
- CATAGCTA — lower, -0.113
- CGAGGCCA — lower, 0.0701
- ATGGAGAG — lower, -0.18
- GGGGACCC — higher, 0.307
- AGGCGACG — lower, -0.0649
- AATCTCCT — lower, -0.168
- CCCGTGAC — lower, -0.0674
- TCAGTCAA — lower, -0.113
- GATTGCGC — lower, -0.0295
- CAGGGCGC — lower, -0.123
- GGCGACAA — lower, -0.093
- ACAGCCAA — lower, 0.108
- CGCGGAAC — higher, 0.27
- ACAAGGGC — lower, -0.137
- CCCTAAGG — higher, 0.402
- AGTGTAAG — lower, -0.0417
- AGCGGAGA — lower, -0.193
- ATTTTGGC — lower, 0.045
- ACTTTAAC — lower, 0.0891
- ACTGGTTA — higher, 0.405
- ACAGGCCA — lower, 0.0818
- ATATCCCA — lower, -0.00035
- CGTCAATC — lower, 0.00182
- CAGTTGTA — lower, 0.00516
- AGAAGTAG — lower, -0.123
- ACTCAAGG — lower, 0.115
- TACCCCGA — higher, 0.34
- GTACAAAA — higher, 0.272
- ATTTCACC — lower, 0.0916
- CAACGTTC — lower, -0.269
- CTTTCCTA — lower, -0.13
- AGGTTGGA — lower, 0.161
- CTGTTGAA — lower, 0.0925
- ATCGTGTG — lower, -0.037
- GCCGGAAC — lower, 0.0756
- ATAGTTCA — lower, -0.0275
- ATAATGCA — lower, 0.0571
- AATCCCGA — lower, 0.0192
- ACATTTCA — lower, 0.0346
- AGTTGCAT — lower, -0.00701
- ACACCCGG — lower, -0.00501
- ACAGCAAA — lower, 0.051
- CGTGGAAA — higher, 0.219
- CGCAGCAC — lower, -0.156
- AGAGCATA — lower, -0.14
- AATATGGG — lower, -0.0678
- ACATACAT — lower, 0.0505
- CTTGCTCA — lower, -0.0505
- ATTCTTGC — lower, -0.0426
- GCTCGGAC — lower, -0.283
- CGTCTGCC — lower, -0.141
- GTCCACAC — lower, 0.0196
- GATATATC — lower, 0.151
- ACTGAGTA — lower, -0.153
- CTGGAATA — lower, 0.033
- AAGACCAG — lower, 0.0216
- AACTACGC — lower, 0.0295
- GAGCGCCA — lower, -0.291
- CGTTTAGA — lower, -0.0461
- CACGTTGG — lower, -0.0452
- GTAGCAAC — lower, -0.0913
- CACCGCAG — lower, -0.0118
- ACGGCGCG — lower, -0.0597
- CGTCGACC — lower, -0.0268
- ATAGCCGC — lower, -0.114
- ACTCCATA — lower, -0.0866
- AACAGGCA — lower, -0.235
- GTCACCCA — lower, 0.0481
- CTTACACA — lower, 0.0775
- ATACGGAC — lower, -0.159
- ATATCGAA — lower, 0.0482
- AAGAAAAC — higher, 0.189
- ACGATCTC — lower, -0.0656
- AAGGTTCT — higher, 0.327
- CCTGGTTC — lower, 0.103
- CTATGTCC — lower, -0.157
- ACCCACAG — higher, 0.2
- CAGAAATC — lower, 0.0234
- CAGACGTC — lower, -0.276
- CGCGAATA — lower, 0.101
- CCGTGAAC — lower, -0.0502
- CGATTTTA — lower, 0.0299
- CAGCGGGA — lower, -0.137
- AGATCGAT — lower, -0.0763
- ACGATTTC — lower, 0.0069
- AGAAAATC — lower, 0.0273
- ACACACCG — lower, -0.0413
- ATCAAGTC — lower, -0.101
- AGTCTCTG — lower, -0.19
- ACCCTAAA — higher, 0.416
- TATTAGAA — lower, 0.159
- GCCGCAAA — lower, 0.0664
- AGGAAAAA — lower, 0.043
- CCCATGGG — higher, 0.273
- ACCATGGG — lower, 0.126
- GCAGGTAC — higher, 0.198
- GTATACTA — lower, 0.108
- TCAAGAAA — higher, 0.264
- AATACCTA — higher, 0.212
- CGTAATGC — lower, -0.0847
- AGAAGCAT — lower, -0.0953
- ATGCTACC — higher, 0.179
- CGCTACAG — lower, -0.0949
- AAAGCGAT — lower, -0.107
- CAAGACGC — lower, -0.11
- GGAAAAAA — lower, 0.0521
- ATTCGATA — lower, -0.00617
- TCCGGTAA — lower, 0.109
- GAGAAAAA — lower, 0.148
- CACCAAGG — lower, 0.00411
- AGGCGGAT — lower, -0.171
- GCGGTGGA — lower, -0.0833
- CCTTACTC — lower, 0.0743
- ATTGCGAC — higher, 0.204
- CACTTCTC — lower, -0.0883
- CTCCCGAG — lower, -0.223
- CGGCTGAG — lower, -0.215
- CGAGTGCA — lower, -0.113
- AGCTTATC — lower, -0.0688
- CTCGTAAG — higher, 0.215
- GCATGTAC — lower, -0.123
- GGTGAGCA — lower, -0.12
- CATAGCAA — lower, -0.144
- ATATTAAA — higher, 0.309
- CTTTACGA — lower, 0.0176
- CGGTACCA — higher, 0.303
- AAAAAGGA — lower, 0.15
- CCTGAAGC — lower, -0.18
- TGTTAAAA — lower, 0.0204
- ACGCAGGC — lower, -0.211
- TAAGGTGA — lower, 0.155
- AAGTCCTG — lower, -0.127
- CGAAGTAG — lower, -0.206
- CCTAGGCA — lower, -0.199
- ATGTACTG — lower, 0.0212
- ACGTTAGC — lower, -0.0301
- CAGTAAAC — lower, 0.0236
- ACGGCTCC — lower, -0.198
- CTCAGGTA — lower, 0.0689
- ATTAATAC — higher, 0.344
- GAGGCCTC — lower, 0.0975
- ACAACGAC — lower, 0.0348
- AATTTATC — lower, 0.141
- AGTAAAGA — lower, 0.0117
- ACCTGGAC — lower, -0.00821
- AATCGGAG — lower, -0.142
- CTAGATAC — lower, 0.136
- CAAGACAA — lower, 0.046
- AAAACTAT — lower, 0.0776
- TGCTCCCA — lower, -0.0528
- GGGTGCCA — higher, 0.184
- CTAGGTCC — lower, 0.0303
- AGCCACCG — lower, -0.111
- GCGACAGA — lower, 0.0292
- GAACACCC — higher, 0.214
- AGGTAAAA — lower, 0.0951
- TTGTACAA — lower, 0.143
- AATCTTTG — lower, 0.114
- GCAGCTGA — lower, -0.139
- CTACAAAA — higher, 0.199
- GATTCCCC — lower, -0.221
- AACTGTTG — lower, -0.147
- GAAGTCGA — lower, -0.149
- ATGGTTTG — higher, 0.178
- AAGCCGCA — lower, -0.0267
- ATAGCAGA — lower, -0.112
- AGCCAAGC — lower, -0.307
- GCTCTCAA — lower, -0.0651
- GGGAACCA — lower, 0.066
- GAAAGGCC — lower, -0.0308
- GGGGACTA — lower, -0.17
- CTGGTACA — lower, 0.102
- CAAAACAG — lower, 0.0786
- AGTTCTTC — lower, -0.114
- ACTACACG — lower, 0.0523
- ATCTTTTG — lower, 0.113
- CCTTTCGA — lower, 0.114
- GCGCTTTA — lower, 0.0127
- CGCTTCAA — lower, 0.0925
- CACGGCTA — lower, -0.155
- AACTATCG — lower, 0.0124
- GCGAGATA — lower, 0.041
- CTATGACC — higher, 0.266
- TCGGACCA — lower, 0.047
- ACGAGAGC — lower, -0.281
- AGGGCTAA — lower, -0.145
- ACTAGCTA — lower, -0.0342
- CGATCAAG — lower, 0.0316
- AGTTACTA — lower, 0.129
- GACTAGGA — lower, -0.198
- CTGGCCTA — lower, -0.175
- GAGCAACA — lower, -0.0905
- CGGCGAGC — lower, -0.297
- GCGATAAA — lower, 0.0759
- ACTGGGAG — lower, -0.25
- CCTGCAAG — lower, -0.043
- AGGCACTG — lower, -0.0331
- CGAAGACA — lower, -0.141
- TGACGGAA — lower, -0.0455
- AGAGCCCT — lower, -0.249
- AACGCGCT — lower, -0.0561
- GCAAATTA — lower, 0.084
- CCACTGGC — lower, 0.0279
- AAGGCTCA — lower, -0.185
- ATGGCCCG — lower, -0.065
- AAGTTGCC — lower, -0.166
- GCTGACAC — lower, -0.0911
- CATTCGTA — lower, -0.0481
- AGGGGTCA — higher, 0.438
- TACTCTAA — lower, 0.141
- ACATCATG — lower, -0.113

Source: the supplement of paper PMC3334620
